The whole screen tested about 71,000 compounds, of which about 1,800 (2.5%) were called active. The shares of active, inactive and inconclusive entries below differ from those in the screen. Calls follow the shape of the dose curve; as a rule, active = well fitted activation curve with a large enough effect in the signal ratio, with a control signal flat (not every such curve was filed as active); inconclusive = small, poorly fitted or top-dose-only effect, or effect the other way, or a change in a side signal; inactive = flat fitted curve, though single readings scatter; the % refers to the signal ratio. Where the call is inconclusive, the potency comes from a doubtful curve fit.
experiment: Cell signaling CRE-BLA (Fsk stim); details: CHO CRE-bla reporter (cAMP response element driving beta-lactamase), forskolin EC10, beta-lactamase ratio; activity change, negative = inhibition: at 38.2 µM (top of the series) unless noted; as to activity change, negative = inhibition: % of control where 0% means no effect
Outline: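 Reporter-gene assay: CHO cells with beta-lactamase behind cAMP responsive elements, co-treated with compound and EC10 NKH 477 for 3 hours at 37 degrees Celsius. Activity came from the 460/530 nm CCF4 emission ratio.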
Potency is read from the fitted curve at half-maximal effect; tags tell the direction and shape of the fitted curve.

Compound	activity change, negative = inhibition	Potency
O=C(CN(C(=O)CCC(=O)Nc1nccs1)c1ccc(F)cc1)NCc1ccco1	inconclusive: -10.3%	
CCOC(=O)c1[nH]c2ccc(OC)cc2c1NC(=O)C(C)N1CCC2(CC1)OCCO2 (centres undefined)	inactive: 28.8%	
CN1CCN(c2ccnc(-c3ccc(N(C)C)cc3)n2)CC1		inconclusive: 12.6 µM [rising, partial curve]
COc1cccc(-n2c(C)c(C(C)=O)c(C(C)=O)c2C)c1	inactive: -13.2%	
CN(C)c1ncc2nc(-c3ccc(Cl)cc3)c(=O)n(Cc3cccs3)c2n1		inconclusive: 0.398 µM [rising, full curve]
Cc1cc2c(cc1Cl)N(C(=O)Nc1ccnc3ccccc13)CC2	inactive: 9.11%	
O=c1c(-c2nc3ccccc3o2)c2oc3ccccc3n2c2ccccc12		active: 3.98 µM
CCCCn1c(=O)[nH]c(=O)c2c1nc(-c1ccc(C#N)cc1)n2C1CCCC1		inconclusive: 7.94 µM [rising, partial curve]
CC1CCN(S(=O)(=O)c2cccc(-c3nnc(-c4cccnc4)o3)c2)CC1		inconclusive: 10 µM [rising, partial curve]
CC(=O)OCC(=O)[C@@]1(O)CC[C@@H]2[C@H]3CCC4=CC(=O)CC[C@]4(C)[C@]3(F)[C@@H](O)C[C@@]21C	inconclusive: -1.39% [at 17.1 µM]	
O=C(c1oc(=O)c2ccccc2c1-c1ccccc1)N1CCOCC1		inconclusive: 0.0631 µM [falling, full curve, poor fit]
N#CCSc1nnc(N)s1		inconclusive: 12.6 µM [rising, partial curve]
O=C(O)c1ccccc1-c1ccccc1C(=O)Nc1ccc2c(c1)Cc1cc(F)ccc1-2		inconclusive: 1 µM [falling, single point]
O=C(NC1CCCCCCC1)C1CCN(S(=O)(=O)N2CCCC2)CC1	inconclusive: 16.9%	
CCn1c(SCC(N)=O)nc2c(c1=O)C1(CCCC1)Cc1ccccc1-2		active: 3.98 µM
CN(C)c1ccc(CNn2cnnc2SCc2ccc(F)cc2)cc1	inconclusive: 5.59%	
COc1ccccc1NC(=O)CSc1nc2sc(C)c(C)c2c(=O)n1Cc1ccco1		active: 3.98 µM
Cc1nc(-c2ccccc2O)n(S(=O)(=O)N(C)C)n1	inconclusive: -1.28%	
CN1CCN(S(=O)(=O)c2ccc(Sc3nnc(-c4cccs4)n3-c3ccccc3)nc2)CC1	inactive: 3.21%	
COc1ccc2[nH]c(=O)c(CN(C(=O)c3ccncc3)C(C)(C)C)cc2c1		inconclusive: 10 µM [rising, single point]
Cc1ccc(C2NC(=O)c3c(sc4c3CCN(C)C4)N2)s1 (centres undefined)		inconclusive: 10 µM [rising, partial curve]
O=C1CC2(CCCC2)CC(=O)N1CCCCN1CCN(c2ncccn2)CC1		inactive
CC(C)N(Cc1nc2ccccc2[nH]1)C(C)C	inactive: -4.75%	
CN(C)c1ccc(/C=N/n2ncc3ccccc32)cc1		inconclusive: 7.94 µM [rising, partial curve]
O=C(NC1(C(F)(F)F)NC(=O)N(C2CCCCC2)C1=O)c1cccs1 (centres undefined)	inconclusive: -23.4%	
COc1ccc(-n2c(=O)c(-c3ccc(Cl)cc3)nc3cnc(N4CCNCC4)nc32)cc1		inconclusive: 0.501 µM [rising, full curve]
Cc1c(NC(=O)C2(c3ccccc3)CCOCC2)c(=O)n(-c2ccccc2)n1C		inconclusive: 5.01 µM [falling, partial curve]

Compound	activity change, negative = inhibition	Potency
COc1c(C)cc(Br)cc1C(=O)NCc1cccnc1	inconclusive: 29.3%	
COC(=O)[C@@]1(Cc2ccc(OC)cc2)[C@H]2c3cc(C(=O)N(C)C)n(Cc4ccc(OC)c(OC)c4)c3C[C@H]2CN1C(=O)c1ccccc1	inconclusive: 25.4%	
Cc1noc(C)c1COC(=O)c1ccc(-c2nc3ccccc3s2)s1	inconclusive: 2.28%	
Cc1ccc(N2CCN(c3cc(C)nc4nc(C)nn34)CC2)c(C)c1		inconclusive: 12.6 µM [rising, partial curve]
COc1ccc(C(CNC(=O)c2cc(C)oc2C)N2CCOCC2)cc1 (centres undefined)	inactive: -4.56%	
CCc1c(C)nc2ncnn2c1N1CCC(C(=O)N2CCN(c3ccccc3)CC2)CC1	inactive: 10.6%	
Cc1cc(C)n(-c2ccc(C(=O)N3CCc4ccccc43)cc2)n1		inconclusive: 3.98 µM [rising, full curve]
CCCCn1c(SCC(=O)NCC2CCCO2)nc2ccc(N3CCOCC3)cc2c1=O (centres undefined)	inconclusive: 18.9%	
CCCCNc1nc(C)nc2c1nc(-c1ccccc1)n2C(C)CCCN(CC)CC (centres undefined)	inactive: -3.68%	
COC(=O)c1ccc(C(NC(=O)OCc2ccccc2)/C(=C/[C@@H](C)C(=O)NCc2ccc(OC)c(OC)c2)c2cccnc2)cc1 (some centres undefined)	inactive: -7.41%	
O=C(O)C=C1C2CC3CC(C2)CC1C3		inconclusive: 0.0251 µM [rising, full curve, poor fit]
O=C(CCCOc1ccccc1)Nc1cccc(C(=O)O)c1	inactive: -1.76%	
CCn1cc(C(=O)O)c(=O)c2cc3c(cc21)OCO3		inactive
Cc1ccccc1NS(=O)(=O)c1ccc2[nH]cc(C(=O)NCCCN3CCOCC3)c(=O)c2c1	inactive: -9.41%	
O=C(COc1ccc(Cl)cc1Cl)N1CCCCCC1	inconclusive: 17.5% [at 7.6 µM]	
O=C(CSc1nc2ccccc2o1)Nc1nc2ccccc2s1	inactive: -0.622%	
COc1ccc(NC(=O)c2ccco2)cc1NC(=O)c1ccco1	inconclusive: 29.4%	
COc1ccc(C2=Nn3c(nnc3-c3ccc(OC)cc3)SC2)cc1		active: 12.6 µM
CCOC(=O)c1nnsc1NC(C)=O	inconclusive: 16.3%	
COC(=O)Nc1nnc(SCc2ccc(C)cc2)s1	inconclusive: 11.7%	
COc1ccc(-c2nc3cnc(N4CCNCC4)nc3n(-c3ccc(OC)cc3)c2=O)cc1		inconclusive: 0.794 µM [rising, partial curve]
CCOc1ccc(-c2noc(-c3cccnc3)n2)cc1OC		inconclusive: 6.31 µM [rising, partial curve]
Cc1ccc(C(C)C)c(OCc2nnc3n2CCCCC3)c1		inconclusive: 7.94 µM [rising, partial curve]
CCCCNC(=O)c1cc(-c2ccc(OC)cc2)on1	inconclusive: -6.57%	
O=c1cc(-c2ccccc2O)oc2c1ccc1ccccc12	inactive: -11%	
CN(C(=O)COC(=O)c1nc(-c2ccccc2)n(-c2ccccc2)n1)C1CCS(=O)(=O)C1 (centres undefined)	inconclusive: 6.02%	
CC(OC(=O)c1cc[n+]([O-])cc1)C(=O)Nc1ccc(Cl)cn1 (centres undefined)	inactive: -9.03%	

Compound	activity change, negative = inhibition	Potency
CC(=O)NCCNc1ncncc1-c1ccc(N(C)C)cc1	inactive: -12.1%	
c1ccc2c(NCCN3CCOCC3)nc(-c3ccc4c(c3)OCO4)nc2c1		inconclusive: 12.6 µM [rising, single point]
COc1ccc(C2(C(F)(F)F)NC(=O)N(C)C(=O)N2C)cc1 (centres undefined)	inactive: 1.45%	
Cc1cc(C(=O)Cn2nnc3ccccc3c2=O)c(C)n1Cc1cccs1	inactive: -9.33%	
CC1CN(C2CCCCC2)c2nc3c(c(=O)n(C)c(=O)n3C)n2C1 (centres undefined)	inconclusive: 19.5%	
Cc1ccc(-c2nc3ncccc3o2)cc1NC(=O)c1cc2ccccc2o1	inconclusive: -6.53% [at 7.6 µM]	
CC(C)N(C(=O)COC(=O)c1ccccc1C(=O)N1CCN(c2ccc(F)cc2)CC1)C(C)C	inconclusive: -3.26%	
Cc1c(C(=O)O)oc2c1ccc1ccccc12		inconclusive: 5.01 µM [falling, single point]
O=c1cc(-c2cccc(O)c2)oc2cc(O)ccc12	inconclusive: 13.5%	
Cc1cc(C)n(-c2nc(SCC(=O)Nc3nccs3)c3c4c(sc3n2)COC(C)(C)C4)n1	inconclusive: 19.4%	
COc1ccc(-c2csc(C3=C(O)CN(Cc4ccc(S(N)(=O)=O)cc4)C3=N)n2)cc1OC	inconclusive: 7.82%	
CCOC(=O)N1CCC(Nc2ccc3nnc(-c4ccccc4)n3n2)CC1		inconclusive: 12.6 µM [rising, partial curve]
O=C(O)CCN1/C(=C/C=Nc2ccccc2)Oc2ccccc21	inactive: -0.938%	
CC(C)[C@@H](CC(=O)N[C@@H]1CCNC[C@H]1C(=O)N[C@H](CC(=O)N[C@@H](CCC(=O)O)CC(=O)O)Cc1c[nH]c2ccccc12)NC(=O)C[C@H](Cc1c[nH]c2ccccc12)NC(=O)[C@@H]1CCCC[C@H]1N	inactive: -12.4%	
Cc1occc1-c1nnc(SCC(=O)Nc2nccs2)n1CCc1ccccc1	inactive: -4.28%	
COC(=O)c1ccc(-c2nn(C)c(=O)c3ccccc23)cc1		inconclusive: 6.31 µM [rising, partial curve]
O=C(C1Cc2ccccc2CN1S(=O)(=O)c1cccs1)N1CCCCCC1 (centres undefined)		inconclusive: 0.02 µM [falling, full curve, poor fit]
CN(C)c1ccc(-c2ccc3ncnc(-n4ccnc4)c3c2)cc1	inconclusive: -26.7%	
COc1ccc(C(=O)NCC(=O)OC2CCCCC2=O)cc1 (centres undefined)	inconclusive: 3.39%	
COc1ccc(-n2c(=O)c(C)nc3cnc(N4CCOCC4)nc32)cc1		inconclusive: 12.6 µM [rising, partial curve]
NC(=O)C1(N2CCCCC2)CCN(CC(=O)Nc2cc(Cl)ccc2Cl)CC1	inactive: -0.896%	
CN1CC(=O)NC1=NC(=O)c1ccc(Cl)c(S(=O)(=O)N2CCCCCC2)c1	inconclusive: -2.49%	
CC1(C)Cc2noc(N)c2C(C)(C)N1O	inactive: -4.74%	
CCN(CC)c1ccc2c(c1)C(=O)N(C)C2=O		inconclusive: 10 µM [rising, partial curve]
Clc1ccc(Cc2nn3c(Cn4nnc5ccccc54)nnc3s2)cc1	inconclusive: 9.85%	

— PubChem BioAssay AID662 (National Center for Advancing Translational Sciences (NCATS), 2007)
